Among all 270,000 compounds or so, about 620 (0.23%) were called active. The shares of active, inactive and inconclusive entries below differ from those in the screen. Calls follow the shape of the dose curve; as a rule, active = well fitted inhibition curve with a large enough effect in the polarisation, with a control signal flat (not every such curve was filed as active); inconclusive = small, poorly fitted or top-dose-only effect, or effect the other way, or a change in a side signal; inactive = no such curve, though single readings can be large or run the other way; the % refers to the polarisation. Where the call is inconclusive, the potency comes from a doubtful curve fit. A note “side channel” means that the fit belongs to a control or component signal, not to the main read-out.
What follows are compounds tested against Menin (Homo sapiens) (UniProt O00255) (assay: qHTS Assay for Inhibitors Targeting the Menin-MLL Interaction in MLL Related Leukemias: Competition With Texas Red Labeled MLL-derived Mutant Peptide). Conditions: fluorescence polarization; FP activity change, negative = inhibition: at 61.6 µM (top of the series).
For FP activity change, negative = inhibition in this document: % of control where 0% means no effect.
Potency is read from the fitted curve at half-maximal effect; tags tell the direction and shape of the fitted curve or compound fluorescence and quenching.

Sequence of UniProt O00255 (O00255 whole entry, looked up): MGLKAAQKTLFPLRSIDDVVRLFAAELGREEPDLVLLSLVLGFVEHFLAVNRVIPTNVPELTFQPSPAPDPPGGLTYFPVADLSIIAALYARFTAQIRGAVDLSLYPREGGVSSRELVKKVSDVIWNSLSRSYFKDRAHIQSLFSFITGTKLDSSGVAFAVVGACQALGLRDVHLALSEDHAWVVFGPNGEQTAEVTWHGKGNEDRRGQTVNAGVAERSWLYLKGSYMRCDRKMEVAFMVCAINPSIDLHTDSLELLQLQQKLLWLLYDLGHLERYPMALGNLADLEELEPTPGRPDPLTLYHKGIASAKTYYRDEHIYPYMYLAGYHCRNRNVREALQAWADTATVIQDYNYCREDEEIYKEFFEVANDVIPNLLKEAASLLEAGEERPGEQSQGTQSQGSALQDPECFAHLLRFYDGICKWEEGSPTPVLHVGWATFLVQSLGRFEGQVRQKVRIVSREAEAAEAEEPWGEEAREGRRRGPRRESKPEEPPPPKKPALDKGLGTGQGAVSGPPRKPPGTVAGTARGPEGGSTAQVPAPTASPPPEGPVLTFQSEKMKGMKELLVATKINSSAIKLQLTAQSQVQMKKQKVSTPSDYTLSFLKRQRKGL

Row | Structure (SMILES) | FP activity change, negative = inhibition | Potency
1 | COc1ccc2c(c1)OC(C)(C)C(c1ccccc1)C2c1ccc(OCCN2CCCC2)cc1 (stereo not drawn) | inactive: 0.802% | 
2 | COCc1nc2ccccc2n1Cc1ccc(Br)cc1 |  | inconclusive: 8.91 µM [fluorescent, side channel, partial curve]
3 | O=C(Nc1cccc(Cl)c1)Nc1cc(S(=O)(=O)N2CCCCC2)ccc1Cl |  | inconclusive: 39.8 µM [inhibitor, single point]
4 | Nc1nc(SCc2ccc(Cl)cc2)[nH]c(=O)c1-c1ccccc1 |  | inconclusive: 3.55 µM [fluorescent, side channel, full curve]
5 | CC(C)CN(CC(C)C)S(=O)(=O)N1CCC(C(=O)NCc2ccc3c(c2)OCO3)CC1 |  | inconclusive: 14.1 µM [fluorescent, side channel, partial curve]
6 | CC(OC(=O)c1cc(=O)[nH]c2ccccc12)C(=O)c1ccccc1 (stereo not drawn) |  | inconclusive: 31.6 µM [inhibitor, single point]
7 | COc1cc(C(=O)Nc2scc(-c3ccc(C)cc3)c2C(=O)O)cc(OC)c1OC |  | inconclusive: 10 µM [quencher, side channel, partial curve]
8 | COC(=O)C1=C(C)N(CCc2ccc(OC)cc2)C(=O)C1 |  | inconclusive: 1.26 µM [inhibitor, full curve, poor fit]
9 | CCOC(=O)c1ccc(NC(=S)NN)cc1 |  | inconclusive: 25.1 µM [quencher, side channel, single point]
10 | COCCn1c(=O)c(-c2cccc(C#N)c2)nc2cnc(N(C)C)nc21 |  | inconclusive: 8.91 µM [inhibitor, partial curve]
11 | COc1cccc(-c2csc(N3CCN(C(=S)Nc4cccc(Cl)c4)CC3)n2)c1 |  | inconclusive: 2.82 µM [quencher, side channel, full curve, poor fit]
12 | CC(C)Cc1nc(N2CCN(C(=O)c3ccco3)CC2)c(C#N)c2c1CCCC2 |  | inconclusive: 3.16 µM [fluorescent, side channel, full curve, poor fit]
13 | COc1ccc(Nc2nc(-c3cccc(OC)c3O)nc3ccccc23)cc1 |  | inconclusive: 6.31 µM [quencher, side channel, partial curve]
14 | COc1ccccc1CNCC(=O)NCc1ccc(C)cc1 |  | inconclusive: 25.1 µM [fluorescent, side channel, partial curve, poor fit]
15 | CC1CCc2nc(NC(=O)c3ccc(S(=O)(=O)N4CCCc5ccccc54)cc3)sc2C1 (stereo not drawn) |  | inconclusive: 11.2 µM [inhibitor, partial curve]
16 | COc1cccc(N=Nc2ccc3cccnc3c2O)c1 |  | inconclusive: 5.62 µM [quencher, side channel, partial curve]
17 | CC(=O)/C=C1\N(C)c2ccc(C)cc2C1(C)C |  | inconclusive: 31.6 µM [fluorescent, side channel, partial curve]
18 | O=S(=O)(c1cccc(NC(=S)N2CCN(c3cccc(Cl)c3)CC2)c1)C(F)F |  | inconclusive: 14.1 µM [quencher, side channel, partial curve]
19 | Cc1ccc(-c2cn3cc(C)ccc3n2)cc1 |  | inconclusive: 25.1 µM [fluorescent, side channel, single point]
20 | CCn1cc(C(=O)NCCc2ccc(OC)c(OC)c2)c(=O)c2cc(S(=O)(=O)N3CCOCC3)ccc21 |  | active: 15.8 µM

Row | Structure (SMILES) | FP activity change, negative = inhibition | Potency
21 | O=C(Nc1nnc(C2=COCCO2)o1)c1ccc([N+](=O)[O-])s1 |  | inconclusive: 14.1 µM [quencher, side channel, partial curve]
22 | COc1ccc(/C=C/C(=O)NC(=S)Nc2ccc(S(=O)(=O)Nc3cc(C)on3)cc2)cc1 |  | inconclusive: 20 µM [quencher, side channel, partial curve]
23 | COc1ccc2c(CCNC(=O)Nc3ccccc3)c[nH]c2c1 |  | inconclusive: 28.2 µM [quencher, side channel, single point]
24 | C=CCN(CC=C)S(=O)(=O)c1ccc2nsnc2c1 |  | inconclusive: 10 µM [inhibitor, partial curve]
25 | N#Cc1ccccc1OCCCN1CCC(Cc2ccccc2)CC1 |  | inconclusive: 12.6 µM [inhibitor, partial curve, poor fit]
26 | CCN(CC)S(=O)(=O)c1cc(C(=O)OCC(=O)Nc2cccc(Br)c2)ccc1F |  | inconclusive: 3.55 µM [quencher, side channel, partial curve, poor fit]
27 | O=C(Oc1cccc2cccnc12)c1ccco1 | inactive: 12.7% | 
28 | Nc1nonc1-n1nnc(C(=O)N/N=C/c2ccccc2)c1CSc1ccc(Cl)cc1 |  | inconclusive: 10 µM [quencher, side channel, partial curve]
29 | Cc1sc2ncnc(Sc3ccccc3C(=O)Nc3ccc(Br)cc3)c2c1C |  | inconclusive: 14.1 µM [inhibitor, partial curve]
30 | Cc1ccc(NS(=O)(=O)c2cc(C(=O)Nc3cccc([N+](=O)[O-])c3)ccc2C)cc1 |  | inconclusive: 10 µM [quencher, side channel, partial curve]
31 | O=C1c2ccc3c4c(ccc(c24)C(=O)N1NC(=O)C(F)(F)F)CC3 | inactive: -4.15% | 
32 | COc1ccc(CC(=O)NCc2ccccn2)cc1OC |  | inconclusive: 3.16 µM [inhibitor, partial curve]
33 | N#C/C(=C(/O)COc1ccccc1)c1nc2ccccc2s1 |  | inconclusive: 20 µM [quencher, side channel, partial curve]
34 | C=CCn1c(N)c(C(=O)N2CCOCC2)sc1=S | inactive: 10.4% | 
35 | NC(=O)C1CCN(C(=O)c2ccc3c(=O)n(Cc4cccc(Br)c4)c(=S)[nH]c3c2)CC1 |  | inconclusive: 39.8 µM [quencher, side channel, single point]
36 | CCOc1ncccc1C(=O)NCCc1ccc(Cl)cc1 |  | inconclusive: 39.8 µM [inhibitor, single point]
37 | Nc1cc(-c2ccc(Cl)cc2)nn1S(=O)(=O)c1ccc(Cl)cc1 |  | inconclusive: 14.1 µM [quencher, side channel, partial curve]
38 | O=C(Nc1ncc(Cc2cccc(Cl)c2)s1)c1cccs1 |  | inconclusive: 11.2 µM [quencher, side channel, partial curve]
39 | Oc1ccccc1/C=N/c1c(-c2ccco2)nc2ccccn12 |  | inconclusive: 31.6 µM [quencher, single point]
40 | Cc1ccc(NC(=O)CSc2ccc(C(N)=O)cc2[N+](=O)[O-])cc1C |  | inconclusive: 39.8 µM [fluorescent, side channel, single point]

Row | Structure (SMILES) | FP activity change, negative = inhibition | Potency
41 | CCOC(=O)Cn1c(=O)cc(C)c2cccc(C)c21 |  | inconclusive: 12.6 µM [inhibitor, partial curve]
42 | CN1/C(=C/C2CC(=O)N(c3cccc4ccccc34)C2=O)C(C)(C)c2ccccc21 (stereo not drawn) |  | inconclusive: 28.2 µM [quencher, side channel, single point]
43 | O=C(CSc1nc2ccccc2s1)NC(=O)NCc1ccco1 |  | inconclusive: 15.8 µM [quencher, side channel, partial curve]
44 | C=C(C)COc1ccc(-c2nc(N)ncc2-c2ccc(Cl)cc2)c(O)c1 | inactive: 79.5% | 
45 | Cc1ccc(-c2nnc(SCC(=O)Nc3ccccc3N3CCOCC3)o2)cc1 |  | inconclusive: 31.6 µM [inhibitor, partial curve]
46 | O=C(O)c1cc([N+](=O)[O-])c(Sc2nc3ccccc3[nH]2)c([N+](=O)[O-])c1 | inactive: 7.09% | 
47 | COc1ccccc1-n1c(C)cc(/C=C2/C(=N)N3C(=NC2=O)SN=C3S(C)(=O)=O)c1C |  | inconclusive: 12.6 µM [quencher, side channel, partial curve]
48 | CC(C)NC(=O)N1CCC2(CC1)CCN(C(=O)c1ccncc1)CC2 | inactive: 2.08% | 
49 | CN(CCNC(=O)C1CCN(S(=O)(=O)N2CCOCC2)CC1)CCc1ccccc1 |  | inconclusive: 3.16 µM [inhibitor, single point]
50 | COc1ccccc1NC(=O)Nc1nnc(CC(=O)Nc2ccccc2)s1 |  | inconclusive: 39.8 µM [inhibitor, single point]
51 | O=C(CSc1nc(-c2ccccc2)nc2ccc(F)cc12)Nc1ccc(C(=O)O)cc1 |  | inconclusive: 3.55 µM [quencher, side channel, partial curve]
52 | CCc1cccc2c(C(=O)COC(=O)c3ccc([N+](=O)[O-])s3)c[nH]c12 |  | inconclusive: 15.8 µM [quencher, side channel, partial curve]
53 | Cc1ccc(-n2nc(N)c3c(=O)oc(N(C)C)nc32)cc1 |  | inconclusive: 2.51 µM [inhibitor, single point]
54 | COc1ccc(CCC(=O)NCC23CC4CC(CC(C4)C2)C3)cc1 |  | inconclusive: 1 µM [fluorescent, side channel, full curve, poor fit]
55 | Cc1ccc(C(NC(=O)N2CCCC2)C(Cl)(Cl)Cl)cc1F (stereo not drawn) |  | inconclusive: 39.8 µM [fluorescent, side channel, single point]
56 | Cc1ccc(NC(=O)[C@H](C)NC(=O)C2CCN(C(=O)[C@@H](NC(=O)OC(C)(C)C)C(C)C)CC2)cc1 |  | inconclusive: 39.8 µM [inhibitor, single point]
57 | Cc1cccc(NC(=O)c2ccccc2OCC(=O)c2ccccc2)c1 |  | inconclusive: 10 µM [quencher, side channel, partial curve]
58 | CCCCN(Cc1ccccc1)S(=O)(=O)c1ccc2[nH]c(=O)oc2c1 |  | inconclusive: 31.6 µM [quencher, side channel, single point]
